Laboratory results: the supplement of paper PMC4166925
± gives the standard deviation of the averaged measurements. In all, about 33,000 sequences were measured (“E-score (dimensionless, -0.5 to 0.5)”: median about -0.046, highest 2% from about 0.36 on). Some of the results follow.

test system: T1, SpTbr T-box DNA-binding domain (GST fusion); test: PBM E-score of 8-mer (E-score (dimensionless, -0.5 to 0.5)); Tbr is Tbrain of the sea star Patiria miniata (Pm) or the sea urchin Strongylocentrotus purpuratus (Sp); higher = stronger binding preference; most listed sequences are background and not binding sites; conditions: the construct has about 5 more residues each side
T1 sequence: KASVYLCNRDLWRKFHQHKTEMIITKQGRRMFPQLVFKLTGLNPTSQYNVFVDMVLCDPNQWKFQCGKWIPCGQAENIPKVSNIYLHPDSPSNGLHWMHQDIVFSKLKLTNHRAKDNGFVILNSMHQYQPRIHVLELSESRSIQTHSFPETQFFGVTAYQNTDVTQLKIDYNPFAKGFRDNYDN
Procedure, shortened: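 Using the Universal PBM Analysis Suite, every ungapped 8-mer received an enrichment E-score averaged over duplicate arrays. Probe intensities came from double-stranded Universal Agilent oligonucleotide arrays incubated with 200 nM GST-fused Tbr T-box DNA-binding domain in PBS (pH 7.5). That protein was expressed in BL21 E. coli at 20 °C and purified by glutathione affinity chromatography.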

Sequence | PBM E-score of 8-mer
TACCACAA | -0.0401 ± 0.041
AGCAGGCA | -0.0298 ± 0.022
AGTCGATC | 0.0092 ± 0.035
TCCTAACA | 0.141 ± 0.059
CGGCGGGC | -0.184 ± 0.12
GGTAGTTA | -0.00108 ± 0.033
ACGCTGGG | -0.00371 ± 0.016
GTGATTCA | 0.0849 ± 0.0068
CGTACGAC | -0.0171 ± 0.029
CAGATCAC | 0.135 ± 0.033
GGAGTCGA | 0.00106 ± 0.037
CGTAATTA | -0.116 ± 0.069
CGATGGAG | -0.131 ± 0.032
AGGCAAGG | -0.16 ± 0.052
CGGCAGGC | -0.0737 ± 0.01
ACATATAC | -0.0534 ± 0.032
ACTGGGAT | 0.0148 ± 0.046
ATGGACGG | -0.175 ± 0.066
CAGTCCGC | 0.0486 ± 0.021
CACCGTGG | 0.2183 ± 0.0016
AGCTAAAG | -0.278 ± 0.036
GGCTGCGA | 0.185 ± 0.027
CATCAAAG | 0.0341 ± 0.022
AAACCTTA | -0.0223 ± 0.025
AAACTATA | 0.0762 ± 0.033

Sequence | PBM E-score of 8-mer
ACTACGTG | 0.0836 ± 0.056
ATGCGAGA | 0.172 ± 0.017
ACGACGCC | 0.121 ± 0.079
CCGCTGCC | -0.0817 ± 0.0059
CAAATACC | -0.0853 ± 0.024
ATCGTGAG | 0.208 ± 0.0056
CGCGTCAA | 0.313 ± 0.006
ATACTAAA | -0.122 ± 0.0058
AGCCAAAC | 0.0092 ± 0.017
CGAATCTC | 0.0908 ± 0.025
CTGCGTCC | -0.247 ± 0.021
CAATCGGG | -0.184 ± 0.035
GGCTTTAA | -0.149 ± 0.043
GAGATCTC | 0.0968 ± 0.0089
ATCCTGTA | -0.104 ± 0.036
AGCAAATG | -0.212 ± 0.0035
TAGAGACA | -0.121 ± 0.0034
GGCATTAC | -0.177 ± 0.019
AGATGAGC | -0.3 ± 0.013
TATGTAGA | -0.0966 ± 0.018
CCGAGCTA | -0.0175 ± 0.052
CACGAGGA | -0.0363 ± 0.019
CATGCAAG | -0.0547 ± 0.029
ATGGTGGC | 0.274 ± 0.028
GGAACGGA | 0.0688 ± 0.073

Sequence | PBM E-score of 8-mer
AAAAGTGA | 0.169 ± 0.069
GAGTCATA | -0.107 ± 0.043
ATATTTAC | -0.134 ± 0.11
GCACGCAA | 0.0125 ± 0.0044
CGCCTAGC | 0.229 ± 0.014
CGCCTACA | 0.162 ± 0.066
AGTAACAA | 0.169 ± 0.066
CTACAGAG | -0.1919 ± 0.0009
GGAATATA | -0.18 ± 0.0099
GAAAGCCA | -0.173 ± 0.024
CTGTCACA | 0.358 ± 0.01
AAAAATTA | 0.00658 ± 0.092
ATGCGTGC | 0.151 ± 0.014
GAATGTCC | -0.229 ± 0.039
AAGGATCA | -0.0804 ± 0.057
ATGAAGAC | -0.104 ± 0.068
AACTTTAA | -0.144 ± 0.031
TAGCTGGA | -0.0828 ± 0.039
CGTACGCC | -0.175 ± 0.019
GGGAGCTA | -0.0989 ± 0.0066
ATAAGGCA | -0.0753 ± 0.039
CTCGTGGA | -0.0626 ± 0.077
GAGCGTGA | 0.31 ± 0.026
ATGAGTTG | -0.0117 ± 0.028
ATGTAGAA | -0.265 ± 0.042

Sequence | PBM E-score of 8-mer
AAATCGCC | 0.165 ± 0.0026
CAATCAAG | -0.211 ± 0.016
CACAGTTA | 0.147 ± 0.022
CGAAAAGA | -0.121 ± 0.043
TGCAAACA | 0.172 ± 0.021
ACTAGGCG | 0.0902 ± 0.068
CGAATCGA | 0.0765 ± 0.0087
ATCCCGCG | 0.065 ± 0.026
CGTTGCTC | -0.0648 ± 0.01
GTTGTAGA | -0.04927 ± 0.0004
ACGATACC | -0.0239 ± 0.049
CGTGTCTC | -0.0159 ± 0.01
AAGCAGAT | -0.124 ± 0.027
TGCGATAA | 0.275 ± 0.013
CGTACACA | 0.1032 ± 0.00023
ATGTCACC | 0.323 ± 0.0098
CGGTAAAA | -0.0986 ± 0.035
GACCTGCC | 0.0636 ± 0.012
CACTAACG | 0.2548 ± 0.0015
CCTTCCTC | -0.0565 ± 0.11
GCGTGACC | 0.369 ± 0.004
GAATATTC | 0.064 ± 0.1
AAGCCCAA | -0.261 ± 0.094
CACAGAGA | 0.0167 ± 0.011
CAATCTAG | 0.0144 ± 0.083

Sequence | PBM E-score of 8-mer
CAACCGGA | -0.158 ± 0.018
AACGTGGC | 0.27 ± 0.034
ACTCGGGA | -0.132 ± 0.044
CGATCCGC | 0.00935 ± 0.013
AGTATTAC | -0.239 ± 0.0039
CCCTCAGG | -0.109 ± 0.025
ACTGAAAT | 0.174 ± 0.038
ATGATGTC | -0.143 ± 0.0033
AGTTACTG | -0.0684 ± 0.048
AGAAATGG | -0.0657 ± 0.013
CCTGGCTA | 0.00724 ± 0.0031
CACAAGGC | -0.114 ± 0.035
CAGGAGTC | -0.08397 ± 0.00014
TGAGCTCA | -0.137 ± 0.047
CACATGTG | 0.315 ± 0.014
CATCAACA | 0.146 ± 0.015
AGACTGGA | -0.158 ± 0.012
AATGTCCG | -0.174 ± 0.012
AAGCGAAC | -0.061 ± 0.041
CGCGCTCA | 0.108 ± 0.01
ATACGACC | -0.0697 ± 0.018
CTGGGCTA | -0.126 ± 0.019
CTATTTCA | -0.0496 ± 0.03
CGCCAGGA | 0.0592 ± 0.04
AGCGACGG | 0.00089 ± 0.011

Sequence | PBM E-score of 8-mer
ACGAGCAG | 0.0252 ± 0.069
AAATCATA | -0.142 ± 0.086
ACCGTCGT | 0.234 ± 0.037
CATCTTCC | 0.00074 ± 0.00079
ACATTGGC | 0.166 ± 0.028
CACCGGAC | -0.191 ± 0.0046
CGGGCGAA | -0.0971 ± 0.033
GGGCGAAC | -0.0364 ± 0.016
GTCGGTTA | -0.0491 ± 0.011
CGGAGAGA | -0.108 ± 0.025
CAGGATGG | -0.207 ± 0.052
AGGCGAAA | 0.0477 ± 0.032
TAGCGATA | -0.0255 ± 0.0094
AACCATGA | -0.102 ± 0.092
CAGGTTAC | 0.0843 ± 0.017
AATGCATT | -0.119 ± 0.051
ATCCAACG | -0.00189 ± 0.0081
GACGGGAC | 0.00236 ± 0.021
GAATCCAA | -0.176 ± 0.015
AAGGAAAC | 0.0136 ± 0.033
ACCCAGTG | -0.0456 ± 0.03
ACACACTA | 0.165 ± 0.042
AGTGGACC | -0.244 ± 0.074
AATGGGGC | -0.0417 ± 0.019
ATGTCCGA | -0.245 ± 0.031

Sequence | PBM E-score of 8-mer
CGATTTAA | -0.0373 ± 0.037
CATTAAAC | -0.109 ± 0.035
CAGGGATG | -0.0786 ± 0.0098
CTGTAACC | -0.0553 ± 0.019
GCTCTCCC | -0.276 ± 0.024
AAAATATT | -0.0954 ± 0.078
ATTATGCA | -0.239 ± 0.021
AAAGCATG | -0.0264 ± 0.029
CCGGGAAA | 0.156 ± 0.0031
GGGAGGGA | -0.121 ± 0.015
CATAAATC | -0.0478 ± 0.039
GATTTGGA | -0.094 ± 0.069
GAGTAACA | 0.211 ± 0.034
AAGGGTCA | 0.0705 ± 0.055
ATCTTCTA | -0.13 ± 0.054
ACGGAAGC | -0.134 ± 0.026
CACCCTGC | 0.214 ± 0.0075
GCATTCCC | -0.0683 ± 0.1
TACCTCAA | -0.13 ± 0.045
CGCCAGCG | 0.165 ± 0.095
TTGTGAAA | 0.361 ± 0.04
ACATGATC | -0.0613 ± 0.067
